In publication PMC11995724, “Antibiotic target discovery by integrated phenotypic and activity-based profiling of electrophilic fragments” (Cell chemical biology, 2025):
In all, about 3,200 compounds went through this assay and about 110 (3.4%) showed an effect of 50% or more. The list shows a part of the results.

System: T1, V. cholerae SAD30
T1 construct: SAD30
Parameters: species or system S. aureus MSSA476 (TSB) or V. cholerae SAD30 (LB); 384-well bacterial growth screen at 25 uM, OD600 relative to DMSO control
Conditions: relative growth, OD600, LB; 25 µM; inhibitor

Row | Structure (SMILES) | % of control remaining [%]
1 | C=CC(=O)NCC1CCN(Cc2ccccc2)CC1C (centres unmarked) [3-G20, N-[(1-benzyl-3-methylpiperidin-4-yl)methyl]prop-2-enamide] | 87.8552
2 | C=CC(=O)Nc1cnn(CCF)c1 [1-E05, N-[1-(2-fluoroethyl)-1H-pyrazol-4-yl]prop-2-enamide] | 98.0568
3 | CCC(=O)Nc1cccc(NC(=O)CCl)c1C [5-K04, N-[3-(2-chloroacetamido)-2-methylphenyl]propanamide] | 100.872
4 | C=CC(=O)N1CCN(c2nccn(C)c2=O)CC1 [3-P20, 1-methyl-3-[4-(prop-2-enoyl)piperazin-1-yl]-1,2-dihydropyrazin-2-one] | 112.38
5 | C=CC(=O)Nc1ccc(C(=O)N2CCC(S(=O)(=O)NC)C2)cc1 (centres unmarked) [3-O08, N-{4-[3-(methylsulfamoyl)pyrrolidine-1-carbonyl]phenyl}prop-2-enamide] | 98.9708
6 | C=CC(=O)N1CCOC2(CCCCCC2)C1 [1-L08, 1-{1-oxa-4-azaspiro[5.6]dodecan-4-yl}prop-2-en-1-one] | 106.968
7 | C=CC(=O)Nc1cccc(-c2nc(COC)no2)c1C [1-J08, N-{3-[3-(methoxymethyl)-1,2,4-oxadiazol-5-yl]-2-methylphenyl}prop-2-enamide] | 104.514
8 | COc1cccc2cc(C=C(C#N)C(=O)Nc3ccc(C)cc3)oc12 [9-A17, 2-cyano-3-(7-methoxy-1-benzofuran-2-yl)-N-(4-methylphenyl)prop-2-enamide] | 83.5486
9 | CC(Cl)C(=O)Nc1ccc(F)cc1 (centres unmarked) [6-K15, 2-chloro-N-(4-fluorophenyl)propanamide] | 87.9704
10 | Cc1cc(C)n(CCCNC(=O)C(C)Cl)n1 (centres unmarked) [7-O19, 2-chloro-N-[3-(3,5-dimethyl-1H-pyrazol-1-yl)propyl]propanamide] | 79.1674
11 | COc1cccc(NC(=O)C(C#N)=Cc2cccc(O)c2)c1 [8-P03, 2-cyano-3-(3-hydroxyphenyl)-N-(3-methoxyphenyl)prop-2-enamide] | 82.4609
12 | CC1=C(C#N)C(=O)N(C)C(=O)C1=Cc1ccc(-c2ccccc2Cl)o1 [9-K18, 5-{[5-(2-chlorophenyl)furan-2-yl]methylidene}-1,4-dimethyl-2,6-dioxo-1,2,5,6-tetrahydropyridine-3-carbonitrile] | 79.0619
13 | Cc1ccc(NC(=O)C(C#N)=Cc2cccc(C(F)(F)F)c2)c(C)c1 [8-H11, 2-cyano-N-(2,4-dimethylphenyl)-3-[3-(trifluoromethyl)phenyl]prop-2-enamide] | 67.6411
14 | CC(NC(=O)CCl)c1ccc(-c2ccccc2)cc1 (centres unmarked) [5-A17, N-(1-{[1,1'-biphenyl]-4-yl}ethyl)-2-chloroacetamide] | 96.3329
15 | N#CC(=Cc1cnc2ccccn12)C(=O)NCc1ccccc1 [9-P18, N-benzyl-2-cyano-3-{imidazo[1,2-a]pyridin-3-yl}prop-2-enamide] | 86.6757
16 | C=CC(=O)Nc1cccc(-c2ccon2)c1 [3-L04, N-[3-(1,2-oxazol-3-yl)phenyl]prop-2-enamide] | 96.5006
17 | N#CC(=Cc1ccc(OC(F)F)cc1)C(=O)N1CCCC1 [8-L22, 3-[4-(difluoromethoxy)phenyl]-2-(pyrrolidine-1-carbonyl)prop-2-enenitrile] | 77.0224
18 | CC(Cl)C(=O)c1ccc(C(C)(C)C)cc1 (centres unmarked) [10-D14, 1-(4-tert-butylphenyl)-2-chloropropan-1-one] | 99.5909
19 | C=CC(=O)N1CCC(C(=O)NCCC2CCS(=O)(=O)C2)CC1 (centres unmarked) [2-H05, N-[2-(1,1-dioxo-1lambda6-thiolan-3-yl)ethyl]-1-(prop-2-enoyl)piperidine-4-carboxamide] | 92.975
20 | COc1ccc2cc(CN(C)C(=O)CCl)ccc2c1 [4-A19, 2-chloro-N-[(6-methoxynaphthalen-2-yl)methyl]-N-methylacetamide] | 94.8889
21 | CCCCNC(=O)C(C#N)=Cc1ccc(C)s1 [9-J06, N-butyl-2-cyano-3-(5-methylthiophen-2-yl)prop-2-enamide] | 70.0884
22 | C=CC(=O)N1CCC(C(=O)NC2CCCc3nc(C)ncc32)CC1 (centres unmarked) [3-I17, N-(2-methyl-5,6,7,8-tetrahydroquinazolin-5-yl)-1-(prop-2-enoyl)piperidine-4-carboxamide] | 88.9138
23 | C=CC(=O)NC(C(N)=O)c1ccccc1F (centres unmarked) [2-H19, N-[carbamoyl(2-fluorophenyl)methyl]prop-2-enamide] | 94.519
24 | C=CC(=O)N(C)CC(=O)NC1CCC(N2CCCCC2=O)CC1 (centres unmarked) [3-A06, N-methyl-N-({[4-(2-oxopiperidin-1-yl)cyclohexyl]carbamoyl}methyl)prop-2-enamide] | 122.084
25 | COc1ccc(C=C(C#N)C(=O)Nc2ccccc2C)cc1O [8-P15, 2-cyano-3-(3-hydroxy-4-methoxyphenyl)-N-(2-methylphenyl)prop-2-enamide] | 82.3249
26 | C=CC(=O)N(Cc1ccc2c(c1)CCC2)Cc1c(C)noc1C [1-L09, N-[(2,3-dihydro-1H-inden-5-yl)methyl]-N-[(3,5-dimethyl-1,2-oxazol-4-yl)methyl]prop-2-enamide] | 74.8879
27 | COc1cc(NC(=O)CCl)c(C)cc1[N+](=O)[O-] [4-M09, 2-chloro-N-(5-methoxy-2-methyl-4-nitrophenyl)acetamide] | 98.512
28 | CCc1ccc(NC(=O)C(C#N)=Cc2ccn(-c3ccccc3)n2)cc1 [8-K22, 2-cyano-N-(4-ethylphenyl)-3-(1-phenyl-1H-pyrazol-3-yl)prop-2-enamide] | 84.7723
29 | CCCCNC(=O)C(C#N)=Cc1cccc2ccccc12 [8-N13, N-butyl-2-cyano-3-(naphthalen-1-yl)prop-2-enamide] | 68.5928
